Measured values taken from patent US20100291088A1 (published 2010).

Legend:
(4C/A)-huIL-18 [1] = molecular target: T1, (4C/A)-huIL-18 (human, UniProt Q14116 37-193); test: cell-based or functional assay
(4C/A)-huIL-18 [2] = molecular target: T1, (4C/A)-huIL-18; test: cell-based or functional assay; remark: listed apart in the source

KG-1 neutralization potency in vitro (IC50, nM) ((4C/A)-huIL-18 [1]) | KG-1 Bioassay IC50 ((4C/A)-huIL-18 [2]) | Binder
0.2 nM | 0.2 nM | 2.5(E)mg1 (antibody, human IgG1, kappa) heavy: ZVQLVQSGTEVKKPGESLKISCKGSGYTVTSYWIGWVRQMPGKGLEWMGFIYPGDSETRYSPTFQGQVTISADKSFNTAFLQWSSLKASDTAMYYCARVGSGWYPYTFDIWGQGTMVTVSSASTKGPSVFPLAPSSKSTSGGTAALGCLVKDYFPEPVTVSWNSGALTSGVHTFPAVLQSSGLYSLSSVVTVPSSSLGTQTYICNVNHKPSNTKVDKKV[letters of human IgG1 Fc with changes not shown] light: EIVMTQSPATLSVSPGERATLSCRASESISSNLAWYQQKPGQAPRLFIYTASTRATDIPARFSGSGSGTEFTLTISSLQSEDFAVYYCQQYNNWPSITFGQGTRLEIKRTVAAPSVFIFPPSDEQLKSGTASVVCLLNNFYPREAKVQWKVDNALQSGNSQESVTEQDSKDSTYSLSSTLTLSKADYEKHKVYACEVTHQGLSSPVTKSFNRGEC
– | 0.4 nM | 2.5(E)wtg1 (antibody, human IgG1, kappa) heavy: ZVQLVQSGTEVKKPGESLKISCKGSGYTVTSYWIGWVRQMPGKGLEWMGFIYPGDSETRYSPTFQGQVTISADKSFNTAFLQWSSLKASDTAMYYCARVGSGWYPYTFDIWGQGTMVTVSS[letters of human IgG1 constant region not shown] light: EIVMTQSPATLSVSPGERATLSCRASESISSNLAWYQQKPGQAPRLFIYTASTRATDIPARFSGSGSGTEFTLTISSLQSEDFAVYYCQQYNNWPSITFGQGTRLEIKRTVAAPSVFIFPPSDEQLKSGTASVVCLLNNFYPREAKVQWKVDNALQSGNSQESVTEQDSKDSTYSLSSTLTLSKADYEKHKVYACEVTHQGLSSPVTKSFNRGEC
